Test results published in the RNAGym collection of RNA variant scans (doi:10.7554/elife.90254).
The source gives no read counts; variants with many changes may rest on few reads.

B1: OR4K15 (parent)
chain: GUUAACGGUCAUAGGCCAUGGAAACUAGGAGCACCAUUUCGCUGCCAGUGAAGAAAUGAACAAAGAAAAUCUGGGCCAGGCAGGCAUCAAAAGAAAUAGUCUUGCGCUCAACCAGAAAGUCUGUAAUCAUUUUAAGGGUA

Variants of: B1
Assay: self-cleavage, relative activity (ratio to wild type); higher = more cleavage; in vitro, sequencing; the parent is a self-cleaving ribozyme

Row | Variant | self-cleavage
1 | A18G U102C U131C | 1.31
2 | A18G U57C A90G | 0.48
3 | G15U U87C U127C | 0.55
4 | A18G U19C U37C A62G A69G A91U | 0.71
5 | A18G A66U C107A | 0.01
6 | A18U A30U U38C A78G U122C A129G U132C | 0.09
7 | A18U U19C A33G | 1.02
8 | A18G A52G U108C | 0.05
9 | A18G C35U A78U U120A U127C | 0.16
10 | A18G A47C U102C | 2.18
11 | A18U A33G A54U U102C A116G U132C | 0.46
12 | U19A A59G A86U A98G | 1.46
13 | U19A A66G A90U A116G A118G | 0.5
14 | U19A A68U U127G | 2.23
15 | U19A C85U A89G A95G A111G A118U | 0.01
16 | A18G A52G U72C G73A | 0.19
17 | A18G A23G U38C A68G | 0.78
18 | A18C U87A U133C | 0.38
19 | A18G U102C A114U | 0.18
20 | A18U U37C A54G U108C A114G | 0.01
21 | A18U A23G A60G A66G | 0.49
22 | C17U A27U A110U | 1.08
23 | C16U A33G A67G A94G A117G | 0.98
24 | C17U U37C U38C | 1.18

Row | Variant | self-cleavage
25 | C16U G31A C107U U127A | 0.12
26 | A18G A22G A54G | 1.2
27 | A18G U102C A116G U120C | 0.16
28 | A18G U72C A135G | 0.33
29 | A18U A24G A90G | 1.38
30 | G15U U100C A125G | 1.77
31 | U19A A36G U43A A52G A60G A64G A67C | 0.57
32 | A18C A23G U38C | 0.13
33 | G15C A30G U39A A47U A118G U132A | 0.63
34 | C17U U26C A54G | 0.79
35 | C17A G48A C81U | 0.45
36 | C17U A52G A54G | 0.97
37 | C16A A30U A54G A69G A126G U130C | 0.43
38 | A18U C32U U43G A89G | 2.95
39 | U19A U39G U103C | 0.86
40 | A18G A24G U57G U102C A114G A134G | 0.61
41 | A18U U19C U57C A67G A114G | 0.3
42 | G14A U97C A116U | 0.03
43 | A18U A52G A55G A92G A110G C128U | 0.08
44 | A18G U103C U132A | 1.38
45 | A18G U37C U139A | 1.09
46 | A18G A22G A78G A82G A114G | 0.08
47 | C16U G79A A92G A116U A118U U124C U127C | 0
48 | A18G C34A A111U | 0.24

Row | Variant | self-cleavage
49 | A18C A52C A129G G136A | 0.72
50 | A18G A62G G80A A89U U127C A129G | 0.12
51 | A18G A36G A55G A114G U130C | 0.27
52 | A18G A33C G50A U70C A90G A126C | 0.58
53 | U19A A54U A78G | 0.24
54 | U19A A54G A86G | 1.42
55 | A18U A56G A60G C109A | 0.13
56 | A18G A47G U70C | 0.49
57 | A18G A23G A86G U100C A110G U127C | 0.04
58 | A18U A27G U37A U38C | 1.26
59 | A18G U43C U102A U130C | 0.77
60 | A18U A78G U130C U133C | 0.16
61 | G14U A68U A118C | 0.32
62 | A18G A27G U49C U97G | 1.22
63 | C17U C32G A33G | 0.62
64 | A18G A54G A111G A114U | 0.02
65 | A18U A60G U131C | 1.18
66 | A18G A68G U130C A135C | 1.43
67 | U19A G20A A69G U87A A129G | 0.91
68 | G14U U26C A36G A69G | 1.61
69 | A18G U49A A67G A68G A94G U100C A126C U131C | 0.68
70 | A18U U39G A66U | 1.28
71 | A18U A23G A92G | 1.47
72 | A18G A33C U100C U103C | 2.08

Row | Variant | self-cleavage
73 | A18G A22U A66G A126G | 1.26
74 | A18G A59G A111G U132C | 0.03
75 | A18G A92G U102C A117G | 1.58
76 | C16A A23U U43A | 0.85
77 | G14C U38C U49C A55G A64G A117G | 1.1
78 | C16A A55U A63G A68G U108C G137A | 0.01
79 | A18G G74A U132C | 0.23
80 | A18G A56G A78G A126G | 0.62
81 | G15A A60G C105A A114G | 0.01
82 | A18C A52G A55G A67G A129C U139C | 0.45
83 | A18G U26A A98G U103C A140G | 0.06
84 | A18U U124A A125G | 0.9
85 | A18G A54U A64G | 1.85
86 | A18U A92G A94G | 0.64
87 | A18G A92G U132A A135G | 1.42
88 | U19A A54G A116G | 0.56
89 | A18G A23G A59G A95G | 1.49
90 | A18U A129U A140G | 0.76
91 | A18G G21A A90U A92G | 1.33
92 | C16G A59G A60G A67G A78G | 0.35
93 | A18G A30U U38C U43C | 1.31
94 | A18C A69G A111G | 0.02
95 | U19A U39C A59U U72C A92G | 0.17
96 | U19A A62G U103C | 1.03

Row | Variant | self-cleavage
97 | A18G A64G G73A | 0.47
98 | U19A A78U A96G U102A U108C | 0
99 | G14A A90G A118G | 0.77
100 | A18G A30G U108C A140G | 0.04
101 | A18G A23G G53A A135G | 0.75
102 | G15A U37G A55G A64G A69G A78U A96G | 0.14
103 | C17U A18U U19C A27U A92G U130C | 1.18
104 | A18U U26C A66C A68G A69G | 0.71
105 | A18G U70G C105U | 0.06
106 | G14C A24G A30U | 1.16
107 | A18G A33C A78U U97C U103C | 0.04
108 | C16U U102C A111G | 0.01
109 | G14U A18U A96G | 1.6
110 | A18G U37G G44A U49C U100C | 0.78
111 | A18U A33G G48A A62G A94G A129G | 0.17
112 | U19A A56G U57C A90G | 0.73
113 | U19A A24G A30U | 0.91
114 | A18G U19C A54G U122C | 1.15
115 | G15A A47G A55G A66G | 0.75
116 | A18G U38C A54G A67G A82G U97C | 0.45
117 | A18G A51G A90G U131C A140U | 0.28
118 | U19A A24G A111G | 0.17
119 | A18G A64G U97C U122C A126G | 2.06
120 | A18U A95G A118U | 1.14

Row | Variant | self-cleavage
121 | A18U A62G U120G U124C | 0.98
122 | U19A A47U A64G | 1.06
123 | U19A A36G A52G | 0.29
124 | A18U A78G A96G | 0.26
125 | A18G A86U A118G | 2.41
126 | A18G A23G C32U U37C U127C | 0.8
127 | A18U U43G A47G A92G | 0.92
128 | A18G A33G A82G U122G | 0.56
129 | G15A A30G A67G G136U | 1.29
130 | A18G A64G A82G | 0.46
131 | A18U A36G U49C A63G A135G | 1.66
132 | A18C A33G A91C | 0.45
133 | A18G A90G G119U | 1.38
134 | U19A A24C U39C U97A U139C | 2.07
135 | G14A U87C A94G U130C | 0.72
136 | A18C A22G A33U | 1.28
137 | C17U G44A A86G U130C | 1.1
138 | A18C A27U A47U U108C | 0.04
139 | U19A A78U A82U | 0.14
140 | A18G A51U A55G A78U | 0.24
141 | A18G A22U C35U U43A | 1.13
142 | G15U A89U A118G | 1.1
143 | A18G U70G A94G G138A | 1.07
144 | A18C A67G A86G A117U G137A | 1

Row | Variant | self-cleavage
145 | U19A A30G C61U U130C | 0.32
146 | C17U A30G A51U A116G | 0.86
147 | A18U A59G U70C G115U A117G | 0.01
148 | A18G A23G A110G | 0.2
149 | A18U A54G A60G U87A G115U A126G | 0.09
150 | A18G A27G A96U A118G | 0.44
151 | A18C U70C U108C | 0.03
152 | A18G C32A A110U A114U A118U | 0.02
153 | A18G U100C U132C | 1.62
154 | A18G A23C U43A U120C U130C | 1.1
155 | A18G A92G G93A | 0.91
156 | A18G A78G A82U | 0.19
157 | U19A A66U A126G | 1.17
158 | A18U U19A C45U A82U U100C | 0.32
159 | A18G A52U U57C U70A A89U | 1.08
160 | A18G A36U A63G U131C | 0.97
161 | A18G U108C U131C | 0.01
162 | C16G A22G A55G A89G A94G | 0.41
163 | A18G A52G U102C | 0.63
164 | U19A A52G A82G U130A | 0.14
165 | G15A A67G A118G | 1.34
166 | A18G A69G U103C | 1.47
167 | A18G A55G A135G | 1.02
